Results reported in PubChem BioAssay AID651820 (National Center for Advancing Translational Sciences (NCATS), 2012).
The whole screen tested about 340,000 compounds, of which about 12,000 (3.5%) were called active. This list was built around the results that the source calls inconclusive (neither active nor inactive); the mix of calls is not that of the screen. Calls follow the shape of the dose curve; as a rule, active = well fitted inhibition curve with a large enough effect; inconclusive = small, poorly fitted or top-dose-only effect, or another doubt; inactive = no such curve, though single readings can be large or run the other way. Potencies of inconclusive entries are left out as doubtful fits.

Test: qHTS Assay for Inhibitors of Hepatitis C Virus (HCV)
Details: Huh7.5.1 HCVcc-Cre (HCVcc is cell-culture hepatitis C virus) infection, luciferase reporter, 44 h; series mostly up to 41.8 µM
Summary of the method: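 HCVcc-Cre virus at an moi near 0.5 was added right after compound to cells cultured 4 h from seeding (1,000 cells/well). Luciferase activity was determined 44 h later, 15 min after substrate addition at RT.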
Potency is read from the fitted curve at half-maximal effect; tags tell the direction and shape of the fitted curve.

| SMILES | Potency |
| --- | --- |
| COc1ccc(NC(=O)c2ccc(-c3ccccc3)cc2)cc1S(=O)(=O)N1CCOCC1 | inconclusive [inhibitor, partial curve] |
| CC(C)(C)OC(=O)COc1cc(OCC(=O)OC(C)(C)C)c2c(=O)cc(-c3ccccc3)oc2c1 | active: 10 µM |
| Cc1[nH]c2ccc(F)cc2c1CCN(Cc1ccncc1)C(=S)Nc1ccccc1 | inconclusive [inhibitor, partial curve] |
| CCOC(=O)Nc1ccc(S(=O)(=O)Nc2cc(C)on2)cc1 | inactive |
| O=C(NCc1ccc(Cl)cc1)C(=O)NCC(c1cccnc1)N1CCN(c2ccc(F)cc2)CC1 (centres undefined) | inconclusive [inhibitor, single point] |
| Cc1ccccc1-n1c(SCC(=O)c2cc(C)n(C)c2C)nnc1-c1ccncc1 | inconclusive [inhibitor, partial curve] |
| COc1cccc(C(=O)Cn2c(=N)n(C)c3ccccc32)c1 | inactive |
| CCCCCCSc1cccc(-c2nc3ccccn3c2NCc2ccccc2)c1 | inactive |
| CCC(C)c1ccc(NC(=O)COc2c(F)c(F)c(C(F)(F)F)c(F)c2F)cc1 (centres undefined) | inactive |
| CCCCC(CC)C(=O)NCc1ccc(F)cc1 (centres undefined) | inactive |
| COc1cccc(-c2nc(CS(=O)(=O)CC(=O)N3CCN(C4CCCCC4)CC3)c(C)o2)c1 | inconclusive [inhibitor, single point] |
| CCN1CCN(Cc2ccc(NC(=O)c3cc(NC(=O)c4cc(C)on4)cc(OC)c3)cc2C(F)(F)F)CC1 | inconclusive [inhibitor, partial curve] |
| C=CCOc1ccccc1CN(C(=O)CCl)c1ccc2c(c1)OCO2 | inconclusive [inhibitor, single point] |
| O=[N+]([O-])c1ccc(O)c(/C=N/Nc2ccccn2)c1 | active: 2.51 µM |
| O=C(CSc1nc(=O)n2cc(Cl)ccc2n1)Nc1cccc2ccccc12 | inconclusive [inhibitor, single point] |
| COc1ccc(CCNCc2c(-c3ccccc3)n(C)c3ccccc23)cc1 | inconclusive [inhibitor, single point] |
| CNc1snc(C)c1C(=O)OC(C)C(=O)Nc1ccccc1 (centres undefined) | inconclusive [inhibitor, single point] |
| O=C(/C=C1\C(=O)Nc2ccccc21)/C=C1\C(=O)Nc2ccccc21 | inconclusive [inhibitor, single point] |
| CC[C@]12c3[nH]c4ccc(Cl)cc4c3CCN1C(=O)[C@@H](CC(=O)NC/C=C(\C)CCC=C(C)C)C[C@@H]2C(=O)N1CCN(C(=O)C2CC2)CC1 | active: 22.4 µM |
